# According to PubChem BioAssay AID1460 (National Center for Advancing Translational Sciences (NCATS), 2008):
# In all, about 270,000 compounds went through this assay and about 5,800 (2.1%) were called active. Inconclusive results, whose numbers are uncertain, are shown with a selection of clear calls. The call rests on the fitted dose curve; in most records, active means well fitted inhibition curve with a large enough effect; inconclusive means small, poorly fitted or top-dose-only effect; inactive means flat fitted curve, though single readings scatter. Potencies of inconclusive entries are doubtful fits and often do not repeat.
# Molecular target: Microtubule-associated protein tau (Homo sapiens) (UniProt P10636)
# UniProt P10636, sequence (P10636 whole entry, looked up): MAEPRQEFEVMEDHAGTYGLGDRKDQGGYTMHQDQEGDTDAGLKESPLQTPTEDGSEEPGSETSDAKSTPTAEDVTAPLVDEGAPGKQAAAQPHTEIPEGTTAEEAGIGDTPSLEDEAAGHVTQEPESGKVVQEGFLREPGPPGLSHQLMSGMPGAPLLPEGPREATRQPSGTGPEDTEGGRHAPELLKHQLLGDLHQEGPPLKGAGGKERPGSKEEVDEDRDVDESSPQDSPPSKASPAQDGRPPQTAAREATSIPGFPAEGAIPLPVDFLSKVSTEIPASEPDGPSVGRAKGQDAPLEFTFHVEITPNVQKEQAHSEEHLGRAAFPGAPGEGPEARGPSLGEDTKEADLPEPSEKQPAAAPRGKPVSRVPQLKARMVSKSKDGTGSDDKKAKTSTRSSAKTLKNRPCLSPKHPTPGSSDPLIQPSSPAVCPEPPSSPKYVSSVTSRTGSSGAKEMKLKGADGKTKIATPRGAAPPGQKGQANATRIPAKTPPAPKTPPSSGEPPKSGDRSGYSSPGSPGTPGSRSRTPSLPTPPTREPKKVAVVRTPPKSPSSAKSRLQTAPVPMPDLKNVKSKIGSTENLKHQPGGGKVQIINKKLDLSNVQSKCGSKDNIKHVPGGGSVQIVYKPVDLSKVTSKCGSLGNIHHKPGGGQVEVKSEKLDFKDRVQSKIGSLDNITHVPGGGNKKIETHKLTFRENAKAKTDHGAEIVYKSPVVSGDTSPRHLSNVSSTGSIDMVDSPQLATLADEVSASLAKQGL
# Assay: qHTS for Inhibitors of Tau Fibril Formation, Thioflavin T Binding; further: nearly all actives have a fitted effect of over 55% in size
# Conditions: recombinant tau K18 P301L (four-repeat tau fragment), heparin-induced fibrillization, ThT fluorescence; series mostly up to 57.4 µM
# Procedure, shortened: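 Heparin-induced fibrillization of the P301L-mutant K18 repeat-domain fragment of human tau was followed by ThT binding in quantitative high-throughput format.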
# Potency means the concentration at half of the fitted maximal effect; tags describe the fitted curve by direction and shape.
row,Compound,Potency
1,CCOC(=O)c1sc(=S)n(-c2ccccc2)c1C,"inconclusive: 44.7 µM [inhibitor, single point]"
2,COC(=O)c1c([N+](=O)[O-])c(OC)c(OC)c(OC)c1[N+](=O)[O-],inactive
3,Cc1ccc(NC2(C#N)C(=O)Nc3ccccc32)cc1 (configuration not stated),"inconclusive: 22.4 µM [inhibitor, single point]"
4,CCOc1ccc(NC(=O)c2ccc3c(=O)n4nc(Nc5ccccc5C)sc4nc3c2)cc1,"inconclusive: 0.794 µM [inhibitor, full curve]"
5,Cc1ccc2cc(C#N)c(NCCNC(=S)NCCCN3CCOCC3)nc2c1,"inconclusive: 15.8 µM [inhibitor, partial curve]"
6,CCOC(=O)C1=C(Nc2ccc(Cl)cc2)OCC1=O,inactive
7,COc1cc(/C=N/Nc2ccc(F)cc2F)cc(OC)c1O,"inconclusive: 14.1 µM [inhibitor, partial curve]"
8,C=CCn1c(CSc2nc3ccccc3s2)n[nH]c1=S,inactive
9,O=c1oc(-c2ccc([N+](=O)[O-])cc2)nc2ccc(O)cc12,active: 12.6 µM
10,CCN(CC)S(=O)(=O)c1ccc(OC)c(NC(=O)c2cccc(C)c2[N+](=O)[O-])c1,inactive
11,CCCN(Cc1ccccc1)C(=S)Nc1ccc(C(C)=O)cc1,inactive
12,CNC(=O)c1c(NC(=O)c2cc(-c3cc(C)c(C)cc3O)n[nH]2)sc2c1CCCC2,"inconclusive: 4.47 µM [inhibitor, partial curve]"
13,COc1cccc(C(=O)Nc2ccc(N3CCN(Cc4ccccc4)CC3)cc2)c1,"inconclusive: 25.1 µM [inhibitor, partial curve]"
14,COc1ccc(NC(=O)c2ccc3nc(CCc4ccccc4)oc3c2)c(OC)c1,"inconclusive: 0.398 µM [inhibitor, full curve]"
15,CN(C)c1ccc(/C=C(/NC(=O)c2ccccc2)C(=O)N/N=C/c2ccc([N+](=O)[O-])c(O)c2)cc1,active: 3.98 µM
16,O=C(N/N=C/c1cn(-c2ccccc2)nc1-c1cccnc1)c1ccccc1,"inconclusive: 31.6 µM [inhibitor, partial curve]"
17,CC1CCN(C(=O)CSc2c(C(C)C)cnc3c2c(=O)n(C)c(=O)n3C)CC1,inactive
18,O=C(CCCn1c(=O)c2cccn2c2ccc(F)cc21)NCc1ccc(Cl)cc1,inactive
19,O=C(O)c1ccc(N2CC3CC(C2)c2cccc(=O)n2C3)c(NC(=S)Nc2ccc(Br)cc2)c1 (configuration not stated),inactive
20,CCN(Cc1ccccc1)C(=O)Cn1cc(S(=O)(=O)Cc2cccc(Cl)c2)c2ccccc21,inactive
21,Cc1ccc(OCC(=O)c2cc(C)n(-c3ccccc3)c2C)c([N+](=O)[O-])n1,"inconclusive: 35.5 µM [inhibitor, single point]"
22,Cc1cc2c(cc1C)NC(CC(=O)Nc1ccccc1)C(=O)N2 (configuration not stated),"inconclusive: 0.794 µM [inhibitor, full curve]"
23,Cc1ccc(O)c(C(=O)/C=C/c2ccc3c(c2)OCCO3)c1,active: 15.8 µM
24,COC(=O)c1scc(C)c1NC(=O)/C=C/C(=O)O,"inconclusive: 17.8 µM [inhibitor, partial curve, poor fit]"

row,Compound,Potency
1,Cn1c(=O)cc(OCCCC(=O)N2CCN(c3ccccn3)CC2)c2ccccc21,"inconclusive: 5.01 µM [inhibitor, partial curve]"
2,CC(=O)n1cc([C@@H]2C=C(C(=O)N3CCOCC3)O[C@H](OCCCCO)C2)c2ccccc21,"inconclusive: 25.1 µM [inhibitor, single point]"
3,Cc1n[nH]c(C)c1SCC(=O)Nc1ccc(F)cc1,inactive
4,Cc1ccc(C)c(NC(=S)/C(=C(\[O-])c2ccc(Cl)s2)[n+]2ccccc2)c1,"inconclusive: 17.8 µM [inhibitor, partial curve]"
5,O=c1cc(N2CCCCC2)c(-c2ccccc2)nn1Cc1cccc(Cl)c1,"inconclusive: 31.6 µM [inhibitor, single point]"
6,CC(C)C(=O)Nc1cccc(NC(=S)NC(=O)c2ccc([N+](=O)[O-])cc2)c1,"inconclusive: 11.2 µM [inhibitor, partial curve]"
7,O=C(O)c1ccc2cccnc2n1,inactive
8,COc1ccc(N2CCN(C(CNC(=O)c3cccc(Cl)c3)c3cccnc3)CC2)cc1 (configuration not stated),"inconclusive: 7.08 µM [inhibitor, full curve]"
9,CCn1c(C)c(C)c2cc(C(=O)NCCCN3CCCCC3)ccc21,"inconclusive: 39.8 µM [inhibitor, single point]"
10,COc1ccccc1OC(C)C(=O)Nc1c(C(=O)c2ccc(Cl)cc2)oc2ccccc12 (configuration not stated),inactive
11,CCc1ccc(NC(=O)c2ccccc2SC)cc1,"inconclusive: 39.8 µM [inhibitor, single point]"
12,Cc1ccc(C)c(N2CCN(Cc3nnc(-c4ccc5c(c4)OCO5)o3)CC2)c1,"inconclusive: 22.4 µM [inhibitor, partial curve, poor fit]"
13,CC1(C)CC(=O)C2=C(C1)OC(N)=C(C#N)C2C#Cc1ccccc1 (configuration not stated),"inconclusive: 11.2 µM [inhibitor, partial curve]"
14,COC(=O)c1ccc(-n2c(CCC(=O)O)ccc2-c2ccc(C)cc2)cc1,"inconclusive: 14.1 µM [inhibitor, partial curve]"
15,Cc1c(Cl)cccc1NC(=O)c1noc2c1CCCC2,"inconclusive: 14.1 µM [inhibitor, single point]"
16,CC1CCc2c(sc(/N=C/c3cccnc3)c2C(N)=O)C1 (configuration not stated),"inconclusive: 0.891 µM [inhibitor, partial curve]"
17,CSc1ccc(NC(=O)Nc2ccccc2C(N)=O)cc1,"inconclusive: 15.8 µM [inhibitor, partial curve]"
18,CC(=O)Nc1nonc1-c1nnc(SCC(=O)Nc2ccccc2)n1-c1ccccc1,inactive
19,CCCCOc1ccc(CNC(=O)c2ccc(NC(=O)N3CCCCc4ccccc43)cc2)cc1,inactive
20,CC1CCc2c(sc3nc(CN4CCOCC4)nc(NS(=O)(=O)c4cccc([N+](=O)[O-])c4)c23)C1 (configuration not stated),"inconclusive: 12.6 µM [inhibitor, partial curve]"
21,COC(=O)c1ccc(/C=N/Nc2nc(C)c(C)s2)cc1,"inconclusive: 8.91 µM [inhibitor, partial curve]"
22,Cc1cc(C)c(OCCCCN(C)C)c(Br)c1,inactive
23,COc1ccccc1-n1cnnc1SCC(=O)Nc1nc(C)c(Cl)cc1Cl,inactive
24,CC(C)COC(=O)NCCCOC(=O)Nc1ccccc1,inactive

row,Compound,Potency
1,O=C(c1cccnc1)c1cccnc1,inactive
2,CN1CCN(C2=Cc3cc(Cl)ccc3Sc3cc(F)ccc32)CC1,inactive
3,CC(=O)NNc1nc(-c2ccc(C)cc2)cs1,"inconclusive: 35.5 µM [inhibitor, single point]"
4,Cc1sc2ncnc(Nc3ccccc3)c2c1C,"inconclusive: 17.8 µM [inhibitor, partial curve]"
5,Cc1ccc(N2NC(C)(c3cccs3)NC2=S)cc1 (configuration not stated),active: 15.8 µM
6,Cc1c(N=C/C=C2\N(C)c3ccccc3C2(C)C)c(=O)n(-c2ccccc2)n1C,"inconclusive: 25.1 µM [inhibitor, partial curve]"
7,Cc1noc(NS(=O)(=O)c2ccc(NC(=O)CSc3nc4ccccc4s3)cc2)c1C,"inconclusive: 31.6 µM [inhibitor, single point]"
8,Cc1ccc(S(=O)(=O)/N=C(/NC(=S)Nc2ccccc2)c2ccccc2)cc1,inactive
9,CSCCC(=O)Nc1ccc(C(C)=O)cc1,"inconclusive: 8.91 µM [inhibitor, partial curve]"
10,CCOC(=O)N1CCN(c2cc(N3CCN(CC)CC3)c(F)cc2[N+](=O)[O-])CC1C (configuration not stated),"inconclusive: 31.6 µM [inhibitor, partial curve]"
11,CC(=O)c1ccc(N2CCN(C(=O)CCCc3nc4ccccc4s3)CC2)cc1,"inconclusive: 0.282 µM [inhibitor, full curve]"
12,CC1(C)N=C(SCC(=O)Nc2ccccc2)C(c2ccc(Cl)cc2)=N1,"inconclusive: 22.4 µM [inhibitor, partial curve]"
13,Cc1ccc(-n2cc(-c3ccccc3)nc2S(=O)(=O)CC(=O)Nc2ccc(F)cc2)cc1,inactive
14,COC(=O)c1ccc(NC(=O)CSc2nnc(CNc3ccc(OC)cc3)n2C)cc1,"inconclusive: 7.94 µM [inhibitor, partial curve]"
15,N#Cc1ccsc1NC(=O)CN1CCN(c2ccc(O)cc2)CC1,"inconclusive: 25.1 µM [inhibitor, partial curve]"
16,Cc1ccc(C(=O)Nc2cccc(O)c2)cc1S(=O)(=O)N1CCCCCC1,inactive
17,COc1ccc(NC(=O)c2cnc3n(c2=O)CCS3)cc1OC,"inconclusive: 12.6 µM [inhibitor, partial curve, poor fit]"
18,Cc1cc2cc(C(c3nnnn3Cc3ccco3)N3CCc4ccccc43)c(=O)[nH]c2cc1C (configuration not stated),active: 25.1 µM
19,C=C(C)COc1ccc(-c2[nH]ncc2-c2ccc(OC)cc2)c(O)c1,inactive
20,CCOC(=O)c1cnc(SCC(=O)c2ccc(Cl)cc2)nc1N,"inconclusive: 7.94 µM [inhibitor, partial curve, poor fit]"
21,COc1ccc(/C=C/C(=O)c2ccc(O)cc2O)cc1OC,active: 7.08 µM
22,Oc1[nH]c2ccccc2c1N=NC(=S)NCCc1ccccc1,active: 14.1 µM
23,Cc1ccc(-c2nc(N/N=C/c3ccncc3)c3ccccc3n2)cc1,"inconclusive: 14.1 µM [inhibitor, partial curve]"
24,Cc1ccccc1-n1nc(C(=O)c2cccs2)cc(-c2nc3ccccc3[nH]2)c1=N,"inconclusive: 7.94 µM [inhibitor, full curve]"
